# Measurements: the supplement of paper PMC11417369
# ± gives the standard deviation of the averaged measurements. This is one part of the list.
# Test system: PfAP2-G AP2 domain (GST-tagged)
# Test: gcPBM binding intensity (ln(normalized median fluorescence intensity)); higher = stronger DNA binding
# In short: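 Binding intensity is defined as the maximum Masliner-normalised natural-log median intensity across replicate spots for either probe orientation. It was measured on an Agilent 4 × 180k array of primer-extended double-stranded 36-bp intergenic genomic probes and negative controls, to which GST-tagged P. falciparum DNA-binding domains made in E. coli were applied for 1 h in 1× PBS with 1% milk, 0.2 mg/ml BSA, 0.5% salmon testes DNA and 0.03% Triton X-100. Detection was by Alexa488 anti-GST antibody and scanning at 488 nm.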
row,Sequence,gcPBM binding intensity (ln)
1,AAAAAAAAAAAAAAAACACACATATAGATTATTGTA [CACACA_site7797],10.1 ± 0.11
2,TTTTAATTTATCGACACACGCATGAATAGAAATTAG [CACACA_site3361],10.2 ± 0.2
3,TATTTTTATTTTCCTTCACACATTTTTTATATTTTT [CACACA_site5830],9.94 ± 0.17
4,AGACAATATCTTATTTGTACATATGTATTCCTCATA [XGTACX_site5757],10.9 ± 0.38
5,TTATAATTTAATAAATGTACATAAATAATATACATA [XGTACX_site7271],11.2 ± 0.7
6,AACACAATAAAAATTAAAAATGTTAAGTAAATATAA [GTGCAC_negctrl_site60],9.65 ± 0.23
7,ACTTTTTTTTTTTTTTTAGATTACATAAATATAAAT [CACACA_negctrl_site139],10 ± 0.25
8,TATGTATATTTAAATGCATGTGATTATTTTTGACTT [TGCATGCA_site568],9.68 ± 0.099
9,TTATAAATTTAAAAAGTGCATAATAATAACAAAAAG,10.4 ± 0.27
10,TCTAATGTAATGCATACACACAACTATCCATCAAAA [CACACA_site534],9.945 ± 0.007
11,AAAAAATAAATAAATATACACACCATATATATATTT [CACACA_site2854],9.66 ± 0.16
12,TTAACATTTTAAAAATGTACATTTATATACATAAAT [XGTACX_site922],10.9 ± 0.67
13,AGAAAAATTCTAAGAACATGCAAAAAAATAAAAAAA [TGCATGCA_site293],9.915 ± 0.078
14,TTTTATTTTTCTAGTAGTACTTCTTTTTATAATATA [XGTACX_site1181],11.6 ± 0.87
15,AGTTTACACCTTGTGAGTACATACATACATATATAT [XGTACX_site8793],11.5 ± 0.72
16,TATACCTATAGACACACACACATAAATAGATATATA [CACACA_site6748],10.2 ± 0.33
17,TACACGCATAGACACACACACACACGCATATAAATA [CACACA_site6446],10.3 ± 0.29
18,TTTTTTTTTTTAAATAGTACACATATATATATATAT [XGTACX_site6983],11.3 ± 0.85
19,AAAAAAAAAAAAAAAAGTACAAAAAAAAAAAAAAAA [XGTACX_site4549],11.3 ± 0.73
20,TTTGTTCTATGGAGTTTAAAATGTAATATATATTAA [GTGCAC_negctrl_site151],9.85 ± 0.11
21,ATATATATTAATAGTTGTACTATTATAATATTACAA [XGTACX_site1213],11.1 ± 0.79
22,ATCCTGAACAGAATATGTATAAACAGAAGGAAACAA [CACACA_negctrl_site1805],10.1 ± 0.17
23,TTTTTTTTTTTTTTGTCACACACCTTCATAAGAAAA [CACACA_site1166],10 ± 0.52
24,CACACCATATAATATATATATATGTATATATTTATA [CACACA_negctrl_site397],9.79 ± 0.099
